Results published in paper PMC7332293.
No constants are given. Whether binding was seen depends on the method and setting. Binding seen in cells or lysates may run through a third protein. Some results given as binding are weak or reduced against the parent protein; the word gives no strength.

By UniProt entry, the sequences of proteins in these tests, tags left out.
UniProt Q4ZIN3: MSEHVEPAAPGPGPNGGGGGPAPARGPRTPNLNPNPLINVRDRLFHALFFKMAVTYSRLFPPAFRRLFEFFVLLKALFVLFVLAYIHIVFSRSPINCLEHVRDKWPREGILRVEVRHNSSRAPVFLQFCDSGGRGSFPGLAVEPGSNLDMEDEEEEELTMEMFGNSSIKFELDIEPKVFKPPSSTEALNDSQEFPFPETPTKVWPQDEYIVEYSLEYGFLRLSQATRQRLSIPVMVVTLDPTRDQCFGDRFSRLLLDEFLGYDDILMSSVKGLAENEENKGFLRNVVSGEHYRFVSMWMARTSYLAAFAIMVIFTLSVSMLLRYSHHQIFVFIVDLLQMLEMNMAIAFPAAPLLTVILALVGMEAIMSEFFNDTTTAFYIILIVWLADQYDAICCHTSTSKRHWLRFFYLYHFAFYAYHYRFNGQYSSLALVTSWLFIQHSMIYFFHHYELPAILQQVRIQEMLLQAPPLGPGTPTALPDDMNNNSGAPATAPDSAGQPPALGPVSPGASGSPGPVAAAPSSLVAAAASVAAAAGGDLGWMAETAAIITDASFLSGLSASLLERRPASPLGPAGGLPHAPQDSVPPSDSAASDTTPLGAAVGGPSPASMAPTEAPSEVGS
UniProt Q9BY78: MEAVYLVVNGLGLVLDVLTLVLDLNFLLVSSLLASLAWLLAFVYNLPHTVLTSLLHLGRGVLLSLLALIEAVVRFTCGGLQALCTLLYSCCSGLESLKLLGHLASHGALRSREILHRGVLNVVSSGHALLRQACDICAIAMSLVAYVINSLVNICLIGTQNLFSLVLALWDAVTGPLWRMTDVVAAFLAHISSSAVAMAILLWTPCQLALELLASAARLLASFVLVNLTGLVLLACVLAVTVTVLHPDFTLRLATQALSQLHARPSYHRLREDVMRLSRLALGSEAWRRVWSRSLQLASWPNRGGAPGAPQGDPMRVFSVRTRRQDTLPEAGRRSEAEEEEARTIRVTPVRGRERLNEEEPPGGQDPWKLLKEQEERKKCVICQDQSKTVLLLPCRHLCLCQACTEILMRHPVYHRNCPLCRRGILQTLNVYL

Tests used:
[1] = molecular target: TMEM259-S (UniProt Q4ZIN3); experiment: pull-down; S-tagged HCIP transiently expressed in Flp-In293 cells stably expressing the FH-tagged E3; lysates in 1% LMNG; S-protein agarose; western blot
[2] = molecular target: FH-RNF26WT (human) (UniProt Q9BY78); experiment: co-sedimentation; velocity sedimentation of 1% LMNG lysates of FH-RNF26WT cells on a 5-30% sucrose gradient (39,000 rpm, 16 hr, 4°C); 13 fractions, TCA-precipitated, western blot
[3] = molecular target: FH-RNF26WT (human) (UniProt Q9BY78); experiment: co-IP; FH-RNF26WT Flp-In293 cells transfected with siRNAs (control, TMEM33, TMED1, ENDOD1); anti-FLAG agarose; western blot of endogenous HCIPs

Binder | binding [1] | binding [2] | binding [3]
FH-RNF185 (enzyme, UniProt Q96GF1 1-192) MASKGPSASASPENSSAGGPSGSSNGAGESGGQDSTFECNICLDTAKDAVISLCGHLFCWPCLHQWLETRPNRQVCPVCKAGISRDKVIPLYGRGSTGQQDPREKTPPRPQGQRPEPENRGGFQGFGFGDGGFQMSFGIGAFPFGIFATAFNINDGRPPPAVPGTPQYVDEQFLSRLFLFVALVIMFWLLIA | binds |  | 
TMEM43/LUMA (endogenous) (protein, UniProt Q9BTV4 1-400) MAANYSSTSTRREHVKVKTSSQPGFLERLSETSGGMFVGLMAFLLSFYLIFTNEGRALKTATSLAEGLSLVVSPDSIHSVAPENEGRLVHIIGALRTSKLLSDPNYGVHLPAVKLRRHVEMYQWVETEESREYTEDGQVKKETRYSYNTEWRSEIINSKNFDREIGHKNPSAMAVESFMATAPFVQIGRFFLSSGLIDKVDNFKSLSLSKLEDPHVDIIRRGDFFYHSENPKYPEVGDLRVSFSYAGLSGDDPDLGPAHVVTVIARQRGDQLVPFSTKSGDTLLLLHHGDFSAEEVFHRELRSNSMKTWGLRAAGWMAMFMGLNLMTRILYTLVDWFPVFRDLVNIGLKAFAFCVATSLTLLTVAAGWLFYRPLWALLIAGLALVPILVARTRVPAKKLE |  | binds | binds
